Test results reported in PMC10711551 (Nucleic Acids Research, 2023).

Biological target: human DNMT3B PWWP domain (residues 206–355), wild type (human, UniProt Q9UBC3 206-355)
Test: ITC

B1: human DNMT3B ADD domain ([…]), wild type (domain or fragment)
chain: not shown
Work on B1 yielded a Kd of 49 µM.
